# The list shows a part of the results.
# Experiments:
# Test in all cases: glycan array binding signal (z-score within array); higher = stronger binding
# Settings in all cases: glycan notation: IUPAC condensed, linker removed
# [1] = biological target: Fuc(a1-2)[GalNAc(a1-3)]Gal(b1-4)[Fuc(a1-3)]GlcNAc
# Summary of the method: (§1)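 From the Consortium for Functional Glycomics database, 3228 arrays were curated, keeping only those whose protein sequence was available. Binding is given as a within-array Z-score averaged across arrays sharing a protein sequence and across linkers. Negative Z-scores can be read as non-binding.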
# [2] = biological target: Fuc(a1-2)[GalNAc(a1-4)]Gal(b1-4)GlcNAc
# Summary of the method: as §1
# [3] = biological target: Fuc(a1-2)[GalNAc(b1-3)]Gal
# Summary of the method: as §1
# Fuc(a1-3)GlcNAc = biological target: Fuc(a1-3)GlcNAc
# Summary of the method: as §1
# [4] = biological target: Fuc(a1-3)[Gal(b1-4)]Glc6S
# Summary of the method: as §1
# [5] = biological target: Fuc(a1-3)[Gal(b1-4)]GlcNAc
# Summary of the method: as §1
# [6] = biological target: Fuc(a1-3)[Gal(b1-4)]GlcNAc(b1-2)Man(a1-3)[Fuc(a1-3)[Gal(b1-4)]GlcNAc(b1-2)Man(a1-6)]Man(b1-4)GlcNAc(b1-4)GlcNAc
# Summary of the method: as §1
# [7] = biological target: Fuc(a1-3)[Gal(b1-4)]GlcNAc(b1-2)Man(a1-6)[Gal(b1-4)GlcNAc(b1-2)Man(a1-3)]Man(b1-4)GlcNAc(b1-4)GlcNAc
# Summary of the method: as §1
# [8] = biological target: Fuc(a1-3)[Gal(b1-4)]GlcNAc(b1-3)Gal(b1-3)[Fuc(a1-4)]GlcNAc
# Summary of the method: as §1
# [9] = biological target: Fuc(a1-3)[Gal(b1-4)]GlcNAc(b1-4)Gal(b1-4)[Fuc(a1-3)]GlcNAc
# Summary of the method: as §1
# [10] = biological target: Fuc(a1-3)[Gal(b1-4)]GlcNAc(b1-4)Gal(b1-4)[Fuc(a1-3)]GlcNAc(b1-4)Gal(b1-4)[Fuc(a1-3)]GlcNAc
# Summary of the method: as §1
# [11] = biological target: Fuc(a1-3)[Gal(b1-4)]GlcNAc6S
# Summary of the method: as §1
# [12] = biological target: Fuc(a1-3)[Gal3S(b1-4)]Glc6S
# Summary of the method: as §1
# [13] = biological target: Fuc(a1-3)[Gal3S(b1-4)]GlcNAc
# Summary of the method: as §1
# [14] = biological target: Fuc(a1-3)[Gal3S(b1-4)]GlcNAc6S
# Summary of the method: as §1
# [15] = biological target: Fuc(a1-3)[GalNAc(b1-4)]GlcNAc
# Summary of the method: as §1
# Fuc(a1-4)GlcNAc = biological target: Fuc(a1-4)GlcNAc
# Summary of the method: as §1
# Fuc(b1-3)GlcNAc = biological target: Fuc(b1-3)GlcNAc
# Summary of the method: as §1
# Gal(a1-2)Gal = biological target: Gal(a1-2)Gal
# Summary of the method: as §1
# Gal(a1-3)Gal = biological target: Gal(a1-3)Gal
# Summary of the method: as §1
# Gal(a1-3)Gal(b1-3)GlcNAc = biological target: Gal(a1-3)Gal(b1-3)GlcNAc
# Summary of the method: as §1
# Gal(a1-3)Gal(b1-4)Glc = biological target: Gal(a1-3)Gal(b1-4)Glc
# Summary of the method: as §1
# Gal(a1-3)Gal(b1-4)GlcNAc = biological target: Gal(a1-3)Gal(b1-4)GlcNAc
# Summary of the method: as §1
# [16] = biological target: Gal(a1-3)Gal(b1-4)[Fuc(a1-3)]GlcNAc
# Summary of the method: as §1
# Gal(a1-3)GalNAc = biological target: Gal(a1-3)GalNAc
# Summary of the method: as §1
# [17] = biological target: Gal(a1-3)[Gal(a1-4)]Gal(b1-4)GlcNAc
# Summary of the method: as §1
# Gal(a1-4)Gal(b1-4)Glc = biological target: Gal(a1-4)Gal(b1-4)Glc
# Summary of the method: as §1
# Gal(a1-4)Gal(b1-4)GlcNAc = biological target: Gal(a1-4)Gal(b1-4)GlcNAc
# Summary of the method: as §1
# Gal(a1-4)GlcNAc = biological target: Gal(a1-4)GlcNAc
# Summary of the method: as §1
# Gal(a1-6)Glc = biological target: Gal(a1-6)Glc
# Summary of the method: as §1
# Gal(b1-2)Gal = biological target: Gal(b1-2)Gal
# Summary of the method: as §1
# Gal(b1-3)Gal = biological target: Gal(b1-3)Gal
# Summary of the method: as §1
# Gal(b1-3)Gal(b1-4)GlcNAc = biological target: Gal(b1-3)Gal(b1-4)GlcNAc
# Summary of the method: as §1
# Gal(b1-3)GalNAc = biological target: Gal(b1-3)GalNAc
# Summary of the method: as §1
# [18] = biological target: Gal(b1-3)GalNAc(b1-3)Gal(a1-4)Gal(b1-4)Glc
# Summary of the method: as §1
# [19] = biological target: Gal(b1-3)GalNAc(b1-4)Gal(b1-4)Glc
# Summary of the method: as §1
# [20] = biological target: Gal(b1-3)GalNAc(b1-4)[Neu5Ac(a2-3)]Gal(b1-4)Glc
# Summary of the method: as §1
binder,measurement,setting,value
"LSECtin (Homo sapiens), Q6UXB4 (protein) MEQESALRELRERVTQGLAEAGRGREDVRTELFRALEAVRLQNNSCEPCPTSWLSFEGSCYFFSVPKTTWAAAQDHCADASAHLVIVGGLDEQGFLTRNTRGRGYWLGLRAVRHLGKVQGYQWVDGVSLSFSHWNQGEPNDAWGRENCVMMLHTGLWNDAPCDSEKDGWICEKKAQLLTPPSALEPRPLQHVVSWGLLTSLAPGADCQRVFSSSSTAAESQKHLAQHSPVQPSAWALGPPCRPHPNSTHADPT",glycan array binding signal (z-score),[1],-0.254
same,glycan array binding signal (z-score),[2],0.263
same,glycan array binding signal (z-score),[3],-0.28
same,glycan array binding signal (z-score),Fuc(a1-3)GlcNAc,-0.079
same,glycan array binding signal (z-score),[4],-0.236
same,glycan array binding signal (z-score),[5],-0.258
same,glycan array binding signal (z-score),[6],-0.227
same,glycan array binding signal (z-score),[7],2.33
same,glycan array binding signal (z-score),[8],-0.278
same,glycan array binding signal (z-score),[9],-0.284
same,glycan array binding signal (z-score),[10],-0.279
same,glycan array binding signal (z-score),[11],0.014
same,glycan array binding signal (z-score),[12],0.092
same,glycan array binding signal (z-score),[13],0.177
same,glycan array binding signal (z-score),[14],0.707
same,glycan array binding signal (z-score),[15],-0.259
same,glycan array binding signal (z-score),Fuc(a1-4)GlcNAc,-0.301
same,glycan array binding signal (z-score),Fuc(b1-3)GlcNAc,0.342
same,glycan array binding signal (z-score),Gal(a1-2)Gal,-0.295
same,glycan array binding signal (z-score),Gal(a1-3)Gal,-0.298
same,glycan array binding signal (z-score),Gal(a1-3)Gal(b1-3)GlcNAc,-0.305
same,glycan array binding signal (z-score),Gal(a1-3)Gal(b1-4)Glc,-0.285
same,glycan array binding signal (z-score),Gal(a1-3)Gal(b1-4)GlcNAc,-0.298
same,glycan array binding signal (z-score),[16],0.344
same,glycan array binding signal (z-score),Gal(a1-3)GalNAc,-0.291
same,glycan array binding signal (z-score),[17],-0.301
same,glycan array binding signal (z-score),Gal(a1-4)Gal(b1-4)Glc,-0.309
same,glycan array binding signal (z-score),Gal(a1-4)Gal(b1-4)GlcNAc,-0.291
same,glycan array binding signal (z-score),Gal(a1-4)GlcNAc,-0.297
same,glycan array binding signal (z-score),Gal(a1-6)Glc,-0.305
same,glycan array binding signal (z-score),Gal(b1-2)Gal,-0.302
same,glycan array binding signal (z-score),Gal(b1-3)Gal,-0.288
same,glycan array binding signal (z-score),Gal(b1-3)Gal(b1-4)GlcNAc,-0.304
same,glycan array binding signal (z-score),Gal(b1-3)GalNAc,-0.305
same,glycan array binding signal (z-score),[18],-0.285
same,glycan array binding signal (z-score),[19],-0.293
same,glycan array binding signal (z-score),[20],-0.305

# Reference: the supplement of paper PMC8728848
